The values that follow come from patent US11685745B2, “Substituted benzoxazole and benzofuran compounds as PDE7 inhibitors” (Dart NeuroScience, LLC, priority 2017, dated 2023).

pIC50: −log10 of the molar value.

The assay deals with N-terminal truncated recombinant human PDE7B enzyme (Homo sapiens (Human), UniProt Q9NP56). Kind of assay: biochemical.
The pIC50 is the negative decadic logarithm of the IC50, by convention in mol/L. As for `O=C1Nc2c(Cl)cc3cc(C(=O)NCc4ccc5c(c4)COC5)oc3c2C2(CCCCC2)N1` [Example 387, 5′-Chloro-N-(1,3-dihydro-2-benzofuran-5-ylmethyl)-7′-oxo-7′,8′-dihydro-6′H-spiro[cyclohexane-1,9′-furo[2,3-f]quinazoline]-2′-carboxamide], the pIC50 was 7.00 to 8.00.
Then `COCC1(NC(=O)c2cc3cc(Cl)c4c(c3o2)C2(CCCCC2)NC(=O)N4)CCOCC1` [Example 388, 5′-Chloro-N-[4-(methoxymethyl)oxan-4-yl]-7′-oxo-7′,8′-dihydro-6′H-spiro[cyclohexane-1,9′-furo[2,3-f]quinazoline]-2′-carboxamide], with 7.00 to 8.00.
For `O=C1Nc2c(Cl)cc3cc(C(=O)NC4CCC4)oc3c2C2(CCCCC2)N1` [Example 389, 5′-Chloro-N-cyclobutyl-7′-oxo-7′,8′-dihydro-6′H-spiro[cyclohexane-1,9′-furo[2,3-f]quinazoline]-2′-carboxamide] the value was 6.00 to 7.00; for `CCC(=O)N1CCC2(CCCN(C(=O)c3cc4cc(Cl)c5c(c4o3)C3(CCCCC3)NC(=O)N5)C2)CC1` [Example 390, 5′-Chloro-2′-{9-propanoyl-2,9-diazaspiro[5.5]undecane-2-carbonyl}-7′,8′-dihydro-6′H-spiro[cyclohexane-1,9′-furo[2,3-f]quinazoline]-7′-one], 7.00 to 8.00; for `CC(C)N(C)C(=O)c1cc2cc(Cl)c3c(c2o1)C1(CCCCC1)NC(=O)N3` [Example 391, 5′-Chloro-N-methyl-7′-oxo-N-(propan-2-yl)-7′,8′-dihydro-6′H-spiro[cyclohexane-1,9′-furo[2,3-f]quinazoline]-2′-carboxamide], 7.00 to 8.00.
Then `COc1ccccc1[C@H]1[C@@H]2CN(C(=O)c3cc4cc(Cl)c5c(c4o3)C3(CCCCC3)NC(=O)N5)C[C@@H]21` [Example 392, 5′-Chloro-2′-[(1R,5S,6S)-6-(2-methoxyphenyl)-3-azabicyclo[3.1.0]hexane-3-carbonyl]-7′,8′-dihydro-6′H-spiro[cyclohexane-1,9′-furo[2,3-f]quinazoline]-7′-one], with 6.00 to 7.00.
Take `CCCCNC(=O)c1cc2cc(Cl)c3c(c2o1)C1(CCCCC1)NC(=O)N3` [Example 393, N-Butyl-5′-Chloro-7′-oxo-7′,8′-dihydro-6′H-spiro[cyclohexane-1,9′-furo[2,3-f]quinazoline]-2′-carboxamide]: the pIC50 was 7.00 to 8.00.
`CCOc1ccc2c(n1)OCCN(C(=O)c1cc3cc(Cl)c4c(c3o1)C1(CCCCC1)NC(=O)N4)C2` [Example 394, 5′-Chloro-2′-{8-ethoxy-2H,3H,4H,5H-pyrido[3,2-f][1,4]oxazepine-4-carbonyl}-7′,8′-dihydro-6′H-spiro[cyclohexane-1,9′-furo[2,3-f]quinazoline]-7′-one]: the pIC50 was 6.00 to 7.00.
For `O=C1Nc2c(Cl)cc3cc(C(=O)NCCc4ccsc4)oc3c2C2(CCCCC2)N1` [Example 395, 5′-Chloro-7′-oxo-N-[2-(thiophen-3-yl)ethyl]-7′,8′-dihydro-6′H-spiro[cyclohexane-1,9′-furo[2,3-f]quinazoline]-2′-carboxamide] the value was 6.00 to 7.00; for `O=C1Nc2c(Cl)cc3cc(C(=O)NCC(F)(F)C4CCC4)oc3c2C2(CCCCC2)N1` [Example 396, 5′-Chloro-N-(2-cyclobutyl-2,2-difluoroethyl)-7′-oxo-7′,8′-dihydro-6′H-spiro[cyclohexane-1,9′-furo[2,3-f]quinazoline]-2′-carboxamide], 6.00 to 7.00; for `CCCN(C)C(=O)c1cc2cc(Cl)c3c(c2o1)C1(CCCCC1)NC(=O)N3` [Example 397, 5′-Chloro-N-methyl-7′-oxo-N-propyl-7′,8′-dihydro-6′H-spiro[cyclohexane-1,9′-furo[2,3-f]quinazoline]-2′-carboxamide], 7.00 to 8.00.
For `O=C1Nc2c(Cl)cc3cc(C(=O)N4CCC[C@@H]4C(=O)O)oc3c2C2(CCCCC2)N1` [Example 398, (2R)-1-({5′-Chloro-7′-oxo-7′,8′-dihydro-6′H-spiro[cyclohexane-1,9′-furo[2,3-f]quinazoline]-2′-yl}carbonyl)pyrrolidine-2-carboxylic acid] the value was 6.00 to 7.00; for `C[C@@]12CCN(C(=O)c3cc4cc(Cl)c5c(c4o3)C3(CCCCC3)NC(=O)N5)C[C@@H]1C2(F)F` [Example 399, 5′-Chloro-2′-[(1R,6R)-7,7-difluoro-6-methyl-3-azabicyclo[4.1.0]heptane-3-carbonyl]-7′,8′-dihydro-6′H-spiro[cyclohexane-1,9′-furo[2,3-f]quinazoline]-7′-one], 7.00 to 8.00; for `CC(C)n1cnnc1CN(C)C(=O)c1cc2cc(Cl)c3c(c2o1)C1(CCCCC1)NC(=O)N3` [Example 400, 5′-Chloro-N-methyl-7′-oxo-N-{[4-(propan-2-yl)-4H-1,2,4-triazol-3-yl]methyl}-7′,8′-dihydro-6′H-spiro[cyclohexane-1,9′-furo[2,3-f]quinazoline]-2′-carboxamide], 6.00 to 7.00.
Then `O=C1Nc2c(Cl)cc3cc(C(=O)N4CCC5(CC(=O)c6ccccc6O5)C4)oc3c2C2(CCCCC2)N1` (stereo not drawn) [Example 401, 5′-Chloro-2′-({4-oxo-3,4-dihydrospiro[1-benzopyran-2,3′-pyrrolidine]-1′-yl}carbonyl)-7′,8′-dihydro-6′H-spiro[cyclohexane-1,9′-furo[2,3-f]quinazoline]-7′-one], with 7.00 to 8.00; and `O=C1Nc2c(Cl)cc3cc(C(=O)NC4CC4)oc3c2C2(CCCCC2)N1` [Example 402, 5′-Chloro-N-cyclopropyl-7′-oxo-7′,8′-dihydro-6′H-spiro[cyclohexane-1,9′-furo[2,3-f]quinazoline]-2′-carboxamide], with 6.00 to 7.00.
In the case of `CCCN(CC)C(=O)c1cc2cc(Cl)c3c(c2o1)C1(CCCCC1)NC(=O)N3` [Example 403, 5′-Chloro-N-ethyl-7′-oxo-N-propyl-7′,8′-dihydro-6′H-spiro[cyclohexane-1,9′-furo[2,3-f]quinazoline]-2′-carboxamide], the pIC50 was 7.00 to 8.00.
For `CCCNC(=O)c1cc2cc(Cl)c3c(c2o1)C1(CCCCC1)NC(=O)N3` [Example 404, 5′-Chloro-7′-oxo-N-propyl-7′,8′-dihydro-6′H-spiro[cyclohexane-1,9′-furo[2,3-f]quinazoline]-2′-carboxamide] the value was 7.00 to 8.00.
Then `CN(Cc1ccsc1)C(=O)c1cc2cc(Cl)c3c(c2o1)C1(CCCCC1)NC(=O)N3` [Example 405, 5′-Chloro-N-methyl-7′-oxo-N-(thiophen-3-ylmethyl)-7′,8′-dihydro-6′H-spiro[cyclohexane-1,9′-furo[2,3-f]quinazoline]-2′-carboxamide], with 7.00 to 8.00; and `N#CC1CCN(C(=O)c2cc3cc(Cl)c4c(c3o2)C2(CCCCC2)NC(=O)N4)CC1` [Example 406, 1-({5′-Chloro-7′-oxo-7′,8′-dihydro-6′H-spiro[cyclohexane-1,9′-furo[2,3-f]quinazoline]-2′-yl}carbonyl)piperidine-4-carbonitrile], with 7.00 to 8.00.
Then `CN(C)C1CCN(C(=O)c2cc3cc(Cl)c4c(c3o2)C2(CCCCC2)NC(=O)N4)C1` (stereo not drawn) [Example 407, 5′-Chloro-2′-[3-(dimethylamino)pyrrolidine-1-carbonyl]-7′,8′-dihydro-6′H-spiro[cyclohexane-1,9′-furo[2,3-f]quinazoline]-7′-one], with 6.00 to 7.00; and `CN(Cc1ccccc1)C(=O)c1cc2cc(Cl)c3c(c2o1)C1(CCCCC1)NC(=O)N3` [Example 408, N-Benzyl-5′-chloro-N-methyl-7′-oxo-7′,8′-dihydro-6′H-spiro[cyclohexane-1,9′-furo[2,3-f]quinazoline]-2′-carboxamide], with 6.00 to 7.00; and `CN(Cc1cccs1)C(=O)c1cc2cc(Cl)c3c(c2o1)C1(CCCCC1)NC(=O)N3` [Example 409, 5′-Chloro-N-methyl-7′-oxo-N-(thiophen-2-ylmethyl)-7′,8′-dihydro-6′H-spiro[cyclohexane-1,9′-furo[2,3-f]quinazoline]-2′-carboxamide], with 6.00 to 7.00.
As for `COc1cccc(CNC(=O)c2cc3cc(Cl)c4c(c3o2)C2(CCCCC2)NC(=O)N4)c1` [Example 410, 5′-Chloro-N-[(3-methoxyphenyl)methyl]-7′-oxo-7′,8′-dihydro-6′H-spiro[cyclohexane-1,9′-furo[2,3-f]quinazoline]-2′-carboxamide], the pIC50 is 7.00 to 8.00.
On to `O=C1Nc2c(Cl)cc3cc(C(=O)N4CCC(O)C4)oc3c2C2(CCCCC2)N1` (stereo not drawn) [Example 411, 5′-Chloro-2′-(3-hydroxypyrrolidine-1-carbonyl)-7′,8′-dihydro-6′H-spiro[cyclohexane-1,9′-furo[2,3-f]quinazoline]-7′-one], for which the pIC50 is 7.00 to 8.00.
Then `CC(C)N(C(=O)c1cc2cc(Cl)c3c(c2o1)C1(CCCCC1)NC(=O)N3)C(C)C` [Example 412, 5′-Chloro-7′-oxo-N,N-bis(propan-2-yl)-7′,8′-dihydro-6′H-spiro[cyclohexane-1,9′-furo[2,3-f]quinazoline]-2′-carboxamide], with 7.00 to 8.00.
For `O=C1Nc2c(Cl)cc3cc(C(=O)NCCc4ccco4)oc3c2C2(CCCCC2)N1` [Example 413, 5′-Chloro-N-[2-(furan-2-yl)ethyl]-7′-oxo-7′,8′-dihydro-6′H-spiro[cyclohexane-1,9′-furo[2,3-f]quinazoline]-2′-carboxamide] the value was 7.00 to 8.00; for `O=C1Nc2c(Cl)cc3cc(C(=O)N4CCCCC4CO)oc3c2C2(CCCCC2)N1` (stereo not drawn) [Example 414, 5′-Chloro-2′-[2-(hydroxymethyl)piperidine-1-carbonyl]-7′,8′-dihydro-6′H-spiro[cyclohexane-1,9′-furo[2,3-f]quinazoline]-7′-one], 7.00 to 8.00; for `CC(C)N1CCN(C(=O)c2cc3cc(Cl)c4c(c3o2)C2(CCCCC2)NC(=O)N4)CC1` [Example 415, 5′-Chloro-2′-[4-(propan-2-yl)piperazine-1-carbonyl]-7′,8′-dihydro-6′H-spiro[cyclohexane-1,9′-furo[2,3-f]quinazoline]-7′-one], 7.00 to 8.00.
Then `O=C1Nc2c(Cl)cc3cc(C(=O)N4CCCC4c4ccco4)oc3c2C2(CCCCC2)N1` (stereo not drawn) [Example 416, 5′-Chloro-2′-[2-(furan-2-yl)pyrrolidine-1-carbonyl]-7′,8′-dihydro-6′H-spiro[cyclohexane-1,9′-furo[2,3-f]quinazoline]-7′-one], with 7.00 to 8.00.
